Data taken from publication PMC4336329 (PLoS ONE, 2015).
Among all 310,000 compounds or so, about 14,000 (4.5%) showed an effect of 50% or more. Effects have a minus sign here. This is one part of the list.

Each compound was assayed against human ether-à-go-go-related gene (hERG) potassium channel (human, UniProt Q12809) (assay: primary screen, population patch clamp on CHO cells stably expressing hERG).
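Further: peak tail current of the secondary pulse compared with the same well before compound.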

Chain of human ether-à-go-go-related gene (hERG) potassium channel (Q12809 whole entry, looked up): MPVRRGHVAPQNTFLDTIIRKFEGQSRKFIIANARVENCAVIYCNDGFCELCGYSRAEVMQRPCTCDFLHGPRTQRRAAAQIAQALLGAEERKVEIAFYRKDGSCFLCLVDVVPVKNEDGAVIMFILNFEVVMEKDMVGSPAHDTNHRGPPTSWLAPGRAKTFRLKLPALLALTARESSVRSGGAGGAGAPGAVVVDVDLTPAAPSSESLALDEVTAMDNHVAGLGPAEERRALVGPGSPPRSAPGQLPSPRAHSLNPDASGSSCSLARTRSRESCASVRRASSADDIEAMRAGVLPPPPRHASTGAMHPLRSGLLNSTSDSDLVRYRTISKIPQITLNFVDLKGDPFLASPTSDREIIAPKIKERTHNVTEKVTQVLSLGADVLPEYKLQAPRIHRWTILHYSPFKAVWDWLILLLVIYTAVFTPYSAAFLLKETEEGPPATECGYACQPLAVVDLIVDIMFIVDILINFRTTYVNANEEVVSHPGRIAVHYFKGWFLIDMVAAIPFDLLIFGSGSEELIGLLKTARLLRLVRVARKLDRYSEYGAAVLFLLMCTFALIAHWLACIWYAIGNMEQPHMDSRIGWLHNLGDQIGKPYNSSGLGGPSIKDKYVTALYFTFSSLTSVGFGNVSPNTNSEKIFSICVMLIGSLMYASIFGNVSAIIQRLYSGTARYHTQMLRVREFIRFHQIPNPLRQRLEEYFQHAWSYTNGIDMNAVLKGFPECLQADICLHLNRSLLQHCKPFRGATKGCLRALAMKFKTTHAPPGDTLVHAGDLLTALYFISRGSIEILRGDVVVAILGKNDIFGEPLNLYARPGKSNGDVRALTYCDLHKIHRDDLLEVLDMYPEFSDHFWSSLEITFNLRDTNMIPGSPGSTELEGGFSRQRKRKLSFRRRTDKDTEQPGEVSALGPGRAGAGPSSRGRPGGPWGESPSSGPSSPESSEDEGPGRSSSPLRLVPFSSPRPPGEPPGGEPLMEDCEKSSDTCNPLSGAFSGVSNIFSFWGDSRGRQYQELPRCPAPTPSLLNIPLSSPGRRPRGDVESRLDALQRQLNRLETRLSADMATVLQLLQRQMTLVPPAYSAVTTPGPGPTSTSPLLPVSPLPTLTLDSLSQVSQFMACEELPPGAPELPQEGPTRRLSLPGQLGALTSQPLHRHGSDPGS

Row | SMILES | hERG current change (%, negative = inhibition) at 10uM [%]
1 | CC(Oc1ccccc1F)C(=O)NNC(=O)c1cc2ccccc2o1 (centres unmarked) | 11.1
2 | C/C(=N\NS(=O)(=O)c1ccc(Br)cc1)c1ccc(-n2ccnc2)cc1 | -8.71
3 | O=C(Nc1c(C(=O)NCc2ccco2)cnn1-c1ccccc1)c1cccc(F)c1 | -29.8
4 | O=C(CN1C(=O)c2ccccc2C1=O)Nc1ccc(Cl)cn1 | 38.3
5 | COc1ccc(C(C)=O)cc1COC(=O)CCC(=O)N(CC(C)C)c1c(N)n(CC(C)C)c(=O)[nH]c1=O | 2.9
6 | CCOC(=O)c1cnn(-c2cc(Oc3ccccc3)ncn2)c1N | 9.49
7 | CC1(c2ccc([N+](=O)[O-])cc2)NC(=O)NC1=O (centres unmarked) | 8.79
8 | COC(=O)Cc1cc(=O)oc2cc(O)ccc12 | 5.29
9 | O=C(OCc1nnc(-c2ccccc2)o1)c1ccc(CO)cc1 | 30.6
10 | COc1ccc(CNC(=O)CN2C(=O)COc3ccc(S(=O)(=O)N4CCCC4)cc32)cc1 | -2.07
11 | O=C(/C=C/c1ccco1)NCc1ccc2c(c1)OCO2 | 6.92
12 | Cn1cccc1Cc1nnc(SCC(=O)N2CCCc3ccccc32)n1-c1ccc(F)cc1 | -16
13 | Cc1cccc(CCNC(=O)c2nnc(Cc3ccc(Cl)cc3)o2)c1 | 4.7
14 | CCCCn1c2c(c(=O)n(C)c1=O)C(c1ccc(OC)cc1)N1CCCCCC1=N2 (centres unmarked) | -21.9
15 | O=C(Cn1c(C(F)(F)F)nc2ccccc21)c1ccc(Cl)cc1 | -20.5
16 | Cc1nc(C(=O)N2CCCC(N3CCN(c4ccccc4C)CC3)C2)cs1 (centres unmarked) | -39.5
17 | Cn1c2c(c(=O)n(C)c1=O)CN(Cc1ccc(F)cc1)CN2 | 5.51
18 | COc1ccc(C2=NN(S(C)(=O)=O)C(c3ccc4nccnc4c3)C2)cc1 (centres unmarked) | -5.74
19 | C/C=C/C(=O)OCC(=O)Nc1cccc(F)c1 | 15.3
20 | COCCn1c(N)c(N(Cc2ccccc2)C(=O)C2=COCCO2)c(=O)[nH]c1=O | 23.4
21 | O=C(CCCn1c(SCC(=O)c2ccc(F)cc2)nc2ccccc2c1=O)NCc1ccccc1 | 1.75
22 | COCCN(C(=O)C(C)C)c1nnc(-c2cccc(C)c2)s1 | -19.2

Row | SMILES | hERG current change (%, negative = inhibition) at 10uM [%]
23 | Cc1c(Cl)c(C(=O)N2CCCc3ccccc32)nn1C | 5.91
24 | CC1(C)C2CCC1(CS(=O)(=O)NCc1ccc(C(F)(F)F)cc1)C(=O)C2 (centres unmarked) | -12.2
25 | FC(F)Oc1ccc(-c2csc(=Nc3cccnc3)n2CC2CCCO2)cc1 (centres unmarked) | -27.9
26 | COc1cc(C[C@H](C)[C@H](C)Cc2ccc3c(c2)OCO3)ccc1O | -4.04
27 | O=C1c2ccccc2C(=O)C1c1ccncc1 | 16.4
28 | NS(=O)(=O)c1ccc(CNC(=O)/C=C/c2ccc(Cl)c(Cl)c2)cc1 | -1.77
29 | CN1C[C@@H]2C(c3ccc(C(F)(F)F)cc3)C3(c4ccc(C#N)cc4)CC2(C3)[C@H]1c1ccccc1 (some centres unmarked) | 9.92
30 | O=C(Nc1ccccc1N1CCCC1)C1CC(=O)N(Cc2ccccc2)C1 (centres unmarked) | -44.4
31 | COc1ccc(NS(=O)(=O)c2ccc(N3CCCC3)c(NC(=S)Nc3cccc(C)c3C)c2)cc1 | 2.21
32 | Cc1noc(/C=C/N(C)C)c1S(=O)(=O)N1CCCC(C(=O)NCc2ccco2)C1 (centres unmarked) | -22.6
33 | O=C(CCCN1C(=O)C(c2ccccc2)Oc2cccnc21)NCCc1ccc(Cl)cc1 (centres unmarked) | 14.8
34 | O=C1CSC(=Nc2ccccc2)N1Cc1ccccc1 | -0.198
35 | Cl.NC(N)=NC(=O)c1nc(Cl)c(N)nc1N.O | -0.314
36 | COC(=O)[C@H](Cc1ccccc1)NC(=O)N1CCN(Cc2ccccc2)CC1 | -58.6
37 | CC1(C)CC(=O)C(Sc2nnc(-c3ccc(O)cc3)n2CC2CCCO2)C(=O)C1 (centres unmarked) | 17.2
38 | O=C(C[n+]1ccccc1)N/N=C/c1cc(Br)ccc1O.[Cl-] | 15.2
39 | CC(C)(C)C1(c2ccccc2)NC(=O)N(CC(=O)N2CCOCC2)C1=O (centres unmarked) | -8.71
40 | CN(C(=S)NC(=O)Cc1ccccc1)c1ccccc1 | 8.22
41 | C(=N\NC1=NCCN1)/c1ccncc1.Cl | 11.9
42 | O=C(c1ccco1)N1CCC(c2nc3ccccc3[nH]2)CC1 | -5.9
43 | COC(=O)c1ccc(CN2[C@H](C(=O)OC)C[C@@]3(O)[C@H](O)[C@H](O)[C@H](O)C[C@@H]23)cc1 | -16.2
44 | Cl.O=C(c1ccco1)N1CCN(C/C=C/c2ccccc2)CC1 | -38

Row | SMILES | hERG current change (%, negative = inhibition) at 10uM [%]
45 | CN1CCN(C2=C(Cl)C(=O)N(C3CCCCC3)C2=O)CC1 | -24.2
46 | COc1ccc(CC[NH+](C)CCCN2CC(c3ccccc3)CC2=O)cc1OC.O=C([O-])C(=O)[O-] (centres unmarked) | -71.1
47 | CC(C)NS(=O)(=O)c1ccc(NC(=O)C(C)OC(=O)C2CCC2)cc1 (centres unmarked) | 2.97
48 | Cl.NC(N)=Nc1nc(C2COc3ccccc3O2)cs1 (centres unmarked) | -11.7
49 | O=C(C1CCN(Cc2ccc(F)cc2)CC1)N1CCN(C/C=C/c2ccccc2)CC1.O=C(O)C(=O)O | -63.6
50 | CC1=C(C(=O)Nc2ccccn2)C(c2ccc3c(c2)OCO3)C2=C(CC(C)(C)CC2=O)N1 (centres unmarked) | 10.4
51 | CN1CCN(C(=O)/C=C\c2ccc(Cl)cc2)CC1 | -41
52 | Cc1cc(Br)ccc1NC(=O)C1C2CCC(O2)C1C(=O)O (centres unmarked) | 13.7
53 | COc1ccc(C(=O)Cn2cnc3ccccc3c2=O)cc1OC | 18.3
54 | O=C(CSc1nnc(-c2ccc(F)cc2)c2ccccc12)Nc1cccc(Cl)c1 | -5.49
55 | O=C(/C=C/c1ccccc1Cl)NCc1cccs1 | -14.4
56 | COc1cccc(-c2cc3onc(-c4ccccc4)c3c(=O)n2C)c1 | 3.57
57 | Cc1c(N2C(=O)C(=O)/C(=C(/O)c3ccc(Cl)cc3)C2c2ccccc2)c(=O)n(-c2ccccc2)n1C (centres unmarked) | 1.57
58 | O=[N+]([O-])c1ccc(O)c(-c2nc(-c3ccccc3)c(-c3cccs3)[nH]2)c1 | -4.95
59 | COc1ccc(-c2nc(CS(=O)(=O)CC(=O)NCc3ccccc3Br)c(C)o2)cc1 | -6.8
60 | O=c1oc2ccccc2c(NC2CCCCC2)c1NS(=O)(=O)c1ccc(Cl)cc1 | 5.72
61 | CCn1cc(CN2CCN(Cc3ccc(C)o3)C(CCO)C2)c2ccccc21 (centres unmarked) | -2.18
62 | COc1ccc(C)cc1NC(=O)CCS(=O)(=O)c1ccc2c(c1)oc(=O)n2C | 6.76
63 | COc1cccc(N2CC(O)=C(c3nc4ccccc4s3)C2=N)c1 | -5.79
64 | CC1C(=O)N2CCCc3cc(NC(=O)c4ccccc4Br)cc1c32 (centres unmarked) | 3.06
65 | CC1(C)Cc2cccc(C(=O)Nc3ccncc3)c2O1 | -13.8
66 | O=C([O-])C(CCCCNS(=O)(=O)c1ccc(F)cc1)NS(=O)(=O)c1ccc(F)cc1.[K+] (centres unmarked) | 20.3

Row | SMILES | hERG current change (%, negative = inhibition) at 10uM [%]
67 | COc1ccc(CN2C(=O)C(C)S/C2=N/N=C/c2ccco2)cc1 (centres unmarked) | 6.37
68 | O=c1cc(-c2ccc(Br)cc2)[nH][nH]1 | 21.1
69 | NNC(=O)c1sc2cc(C(F)(F)F)cnc2c1-c1ccccn1 | 14.8
70 | Cc1ccc(C)c(CN2C(=O)CSc3ccc(C(=O)NCC(C)CN4CCC(C)CC4)cc32)c1 (centres unmarked) | -75.8
71 | CCn1nc(C)c(CNC(=O)C2CCC(=O)N(CCc3ccc(Cl)cc3)C2)c1C (centres unmarked) | -21.6
72 | O=c1c(/C=N\NS(=O)(=O)c2ccccc2)coc2ccc(Cl)cc12 | 0.0815
73 | COc1cccc(OCc2nc3ncc(Br)cc3[nH]2)c1 | 8.54
74 | Cc1cc(C)cc(OCC(=O)OCC(=O)Nc2cc(S(=O)(=O)N3CCOCC3)ccc2C)c1 | -16.6
75 | O=C(Nc1c[nH]c(=O)[nH]c1=O)c1ccccc1Cl | 18.5
76 | CCc1cccc2c(C#N)cn(CC(=O)NCCOC)c12 | -1.87
77 | COc1ccc(-c2cn(CCO)nc2-c2ccc(OC)cc2)cc1 | -4.8
78 | O=C(NNS(=O)(=O)c1ccc(Br)cc1)c1cccs1 | 1.68
79 | COc1cc2[nH]c(C(=O)N3CCC4(CC3)OCCO4)cc2c(OC)c1OC | 9.46
80 | O=C1CC(c2ccccc2)CC(O)=C1C=NCCN1CCN(C(=O)Nc2ccccc2)CC1 (centres unmarked) | -64.4
81 | OCCCNC(=S)Nc1ccc2nccnc2c1 | 21.2
82 | O=C(N/N=C/c1cccnc1)c1cc(-c2ccccc2OCc2ccccc2)n[nH]1 | 3.28
83 | CC(C)(C)NC(=O)NC(=O)CN1CCCCC1 | 13.8
84 | N#CC1(NC(=O)COC(=O)c2nccnc2N)CCCCC1 | -8.3
85 | O=C(O)c1ccccc1/C=N/Nc1ccc(S(=O)(=O)N2CCCC2)cc1[N+](=O)[O-] | 1.14
86 | CCOC(=O)Nc1ccc2c(CN3C(=O)NC(CC)(CC)C3=O)cc(=O)oc2c1 | -26.4
